In the supplement of paper PMC10369915:
The list shows a part of the results. No stated cut-off is given here; in the data, active = 3.2 or more and inactive = the rest. The signal is at background level for most entries.

Molecular target: SHP2 C-SH2 domain E139D
Test: enrichment score (SH2-bound / input frequency) (ratio); bacterial display of known human phosphotyrosine sites (pTyr-Var adds point mutants) read by sequencing; higher = stronger binding; tyrosines were phosphorylated by kinases first
Settings: peptide library: pTyr-Var
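Further: displayed peptides selected on beads carrying the immobilized SH2 domain, with library peptides lacking any tyrosine serving as negative controls.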

Binder | enrichment score
DAASNYARGHF [TUBA3E_Y103_YF] | inactive: 0.631
DNKALYDICFR [TUBB3_Y208_E205K] | inactive: 0.825
WANPEYTGGFK [TTN_Y22309_K22306N] | inactive: 0.946
VCDALYPPGPP [TTN_Y25928_A25923V] | inactive: 0.927
SLESAYPEVSQ [TTF1_Y357_G360V] | inactive: 0.528
PGVNYYFQVSA [TTN_Y28166_R28168Q] | inactive: 1.26
SSPRRYTIAAL [TTR_Y125_G121S] | inactive: 0.629
SNKELYEKYMI [TTN_Y32175_T32171N] | inactive: 1.02
SGPRRYTIATL [TTR_Y125_A129T] | inactive: 0.435
GFIISYREEEQ [TTN_Y19764_T19762I_YF] | inactive: 1.44
VRLTEYPCAGL [TTN_Y20078_S20075L] | inactive: 0.804
HAVYIYDICHV [TWNK_Y508_V507I] | inactive: 2.87
HLVSEYQQFQD [TUBB3_Y422_D417H_YF] | inactive: 0.869
KINKMYSDRAM [TTN_Y20328] | inactive: 0.66
ANVKWYRNGRE [TTN_Y13783] | inactive: 0.39
SKDSAYVTWEP [TTN_Y20731] | inactive: 0.765
TENAGYYFRIS [TTN_Y31721_V31725I] | inactive: 0.886
TENAGYFFRVS [TTN_Y31721_YF] | inactive: 0.753

Molecular target: SHP2 C-SH2 domain wild-type
Test: as above
Settings: peptide library: pTyr-Var

Binder | enrichment score
DAASNYARGHF [TUBA3E_Y103_YF] | inactive: 0.526
DNKALYDICFR [TUBB3_Y208_E205K] | inactive: 0.896
WANPEYTGGFK [TTN_Y22309_K22306N] | inactive: 1.09
VCDALYPPGPP [TTN_Y25928_A25923V] | inactive: 0.921
SLESAYPEVSQ [TTF1_Y357_G360V] | inactive: 0.517
PGVNYYFQVSA [TTN_Y28166_R28168Q] | inactive: 1.55
SSPRRYTIAAL [TTR_Y125_G121S] | inactive: 0.548
SNKELYEKYMI [TTN_Y32175_T32171N] | inactive: 0.785
SGPRRYTIATL [TTR_Y125_A129T] | inactive: 0.544
GFIISYREEEQ [TTN_Y19764_T19762I_YF] | inactive: 0.965
VRLTEYPCAGL [TTN_Y20078_S20075L] | inactive: 0.804
HAVYIYDICHV [TWNK_Y508_V507I] | active: 4.02
HLVSEYQQFQD [TUBB3_Y422_D417H_YF] | inactive: 0.754
KINKMYSDRAM [TTN_Y20328] | inactive: 0.583
ANVKWYRNGRE [TTN_Y13783] | inactive: 0.384
SKDSAYVTWEP [TTN_Y20731] | inactive: 0.637
TENAGYYFRIS [TTN_Y31721_V31725I] | inactive: 0.919
TENAGYFFRVS [TTN_Y31721_YF] | inactive: 0.585

Molecular target: SHP2 N-SH2 domain L43F
Test: as above
Settings: peptide library: pTyr-Var

Binder | enrichment score
DAASNYARGHF [TUBA3E_Y103_YF] | inactive: 0.758
DNKALYDICFR [TUBB3_Y208_E205K] | inactive: 0.932
WANPEYTGGFK [TTN_Y22309_K22306N] | inactive: 1.03
VCDALYPPGPP [TTN_Y25928_A25923V] | inactive: 0.729
SLESAYPEVSQ [TTF1_Y357_G360V] | inactive: 0.549
PGVNYYFQVSA [TTN_Y28166_R28168Q] | inactive: 1.37
SSPRRYTIAAL [TTR_Y125_G121S] | inactive: 0.606
SNKELYEKYMI [TTN_Y32175_T32171N] | inactive: 0.799
SGPRRYTIATL [TTR_Y125_A129T] | inactive: 0.482
GFIISYREEEQ [TTN_Y19764_T19762I_YF] | inactive: 1.35
VRLTEYPCAGL [TTN_Y20078_S20075L] | inactive: 0.804
HAVYIYDICHV [TWNK_Y508_V507I] | active: 3.37
HLVSEYQQFQD [TUBB3_Y422_D417H_YF] | inactive: 0.952
KINKMYSDRAM [TTN_Y20328] | inactive: 0.513
ANVKWYRNGRE [TTN_Y13783] | inactive: 0.368
SKDSAYVTWEP [TTN_Y20731] | inactive: 0.71
TENAGYYFRIS [TTN_Y31721_V31725I] | inactive: 0.755
TENAGYFFRVS [TTN_Y31721_YF] | inactive: 0.605

Molecular target: SHP2 N-SH2 domain T42A
Test: as above
Settings: peptide library: pTyr-Var

Binder | enrichment score
DAASNYARGHF [TUBA3E_Y103_YF] | inactive: 0.68
DNKALYDICFR [TUBB3_Y208_E205K] | inactive: 0.821
WANPEYTGGFK [TTN_Y22309_K22306N] | inactive: 0.844
VCDALYPPGPP [TTN_Y25928_A25923V] | inactive: 0.625
SLESAYPEVSQ [TTF1_Y357_G360V] | inactive: 0.527
PGVNYYFQVSA [TTN_Y28166_R28168Q] | inactive: 1.13
SSPRRYTIAAL [TTR_Y125_G121S] | inactive: 0.599
SNKELYEKYMI [TTN_Y32175_T32171N] | inactive: 0.712
SGPRRYTIATL [TTR_Y125_A129T] | inactive: 0.441
GFIISYREEEQ [TTN_Y19764_T19762I_YF] | inactive: 1.06
VRLTEYPCAGL [TTN_Y20078_S20075L] | inactive: 0.672
HAVYIYDICHV [TWNK_Y508_V507I] | inactive: 3.03
HLVSEYQQFQD [TUBB3_Y422_D417H_YF] | inactive: 0.728
KINKMYSDRAM [TTN_Y20328] | inactive: 0.609
ANVKWYRNGRE [TTN_Y13783] | inactive: 0.401
SKDSAYVTWEP [TTN_Y20731] | inactive: 0.622
TENAGYYFRIS [TTN_Y31721_V31725I] | inactive: 0.717
TENAGYFFRVS [TTN_Y31721_YF] | inactive: 0.586

Molecular target: SHP2 N-SH2 domain T52S
Test: as above
Settings: peptide library: pTyr-Var

Binder | enrichment score
DAASNYARGHF [TUBA3E_Y103_YF] | inactive: 0.657
DNKALYDICFR [TUBB3_Y208_E205K] | inactive: 0.774
WANPEYTGGFK [TTN_Y22309_K22306N] | inactive: 0.683
VCDALYPPGPP [TTN_Y25928_A25923V] | inactive: 0.747
SLESAYPEVSQ [TTF1_Y357_G360V] | inactive: 0.5
PGVNYYFQVSA [TTN_Y28166_R28168Q] | inactive: 1.12
SSPRRYTIAAL [TTR_Y125_G121S] | inactive: 0.553
SNKELYEKYMI [TTN_Y32175_T32171N] | inactive: 1.07
SGPRRYTIATL [TTR_Y125_A129T] | inactive: 0.4
GFIISYREEEQ [TTN_Y19764_T19762I_YF] | inactive: 1.43
VRLTEYPCAGL [TTN_Y20078_S20075L] | inactive: 0.78
HAVYIYDICHV [TWNK_Y508_V507I] | active: 3.74
HLVSEYQQFQD [TUBB3_Y422_D417H_YF] | inactive: 0.949
KINKMYSDRAM [TTN_Y20328] | inactive: 0.578
ANVKWYRNGRE [TTN_Y13783] | inactive: 0.25
SKDSAYVTWEP [TTN_Y20731] | inactive: 0.667
TENAGYYFRIS [TTN_Y31721_V31725I] | inactive: 0.636
TENAGYFFRVS [TTN_Y31721_YF] | inactive: 0.799

Molecular target: SHP2 N-SH2 domain wild-type
Test: as above
Settings: peptide library: pTyr-Var

Binder | enrichment score
DAASNYARGHF [TUBA3E_Y103_YF] | inactive: 0.568
DNKALYDICFR [TUBB3_Y208_E205K] | inactive: 1.4
WANPEYTGGFK [TTN_Y22309_K22306N] | inactive: 1.07
VCDALYPPGPP [TTN_Y25928_A25923V] | inactive: 0.943
SLESAYPEVSQ [TTF1_Y357_G360V] | inactive: 0.367
PGVNYYFQVSA [TTN_Y28166_R28168Q] | inactive: 1.45
SSPRRYTIAAL [TTR_Y125_G121S] | inactive: 0.579
SNKELYEKYMI [TTN_Y32175_T32171N] | inactive: 1.06
SGPRRYTIATL [TTR_Y125_A129T] | inactive: 0.521
GFIISYREEEQ [TTN_Y19764_T19762I_YF] | inactive: 1.06
VRLTEYPCAGL [TTN_Y20078_S20075L] | inactive: 0.892
HAVYIYDICHV [TWNK_Y508_V507I] | active: 3.88
HLVSEYQQFQD [TUBB3_Y422_D417H_YF] | inactive: 0.724
KINKMYSDRAM [TTN_Y20328] | inactive: 0.741
ANVKWYRNGRE [TTN_Y13783] | inactive: 0.29
SKDSAYVTWEP [TTN_Y20731] | inactive: 0.835
TENAGYYFRIS [TTN_Y31721_V31725I] | inactive: 0.849
TENAGYFFRVS [TTN_Y31721_YF] | inactive: 0.769
